According to the supplement of paper PMC9151546:
Most values come without repeats; read them as rough.

Experiments:
CHO-K1 [1] = assay: relative survival (nuclei to bead ratio vs DMSO control) (% of vehicle control); higher = more surviving cells
Description: (§1)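 Flow-cytometric in vitro micronucleus assay (Litron MicroFlow) in CHO-K1 cells in 96-well plates, 19 concentrations (4.5-200 µM, n=1 per concentration). Without S9, cells were exposed for 24 h and sampled at 48 h. With Aroclor 1254-induced rat liver S9, cells were exposed for 3-4 h and sampled at 27-28 h. Read-outs are %MN and %hypodiploid nuclei relative to nucleated events, and relative survival as the nuclei-to-bead ratio versus the 1% DMSO vehicle control (x100).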

CHO-K1 [2] = assay: micronucleus frequency (% of nucleated events); higher = more micronuclei (genotoxic)
CHO-K1 [3] = assay: hypodiploid nuclei frequency (% of nucleated events); higher = more hypodiploid events (aneugenic)
Description: as §1
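Throughout, for hypodiploid nuclei frequency (% of nucleated events): hypodiploid nuclei gated on a flow cytometer with 488 nm excitation after SYTOX Green staining, cultures at 37 °C, positive controls vinblastine without S9 and cyclophosphamide with S9.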
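Throughout, for micronucleus frequency (% of nucleated events): cells lysed with nuclei stained by SYTOX Green, then micronucleus-gated events counted against nucleated events by flow cytometry with 488 nm excitation.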
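Throughout, for relative survival (nuclei to bead ratio vs DMSO control): Lysed-cell nuclei stained with SYTOX Green and counted against counting beads by flow cytometry at 488 nm excitation, with vinblastine (no S9) and cyclophosphamide (plus S9) as positive controls.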

O=[N+]([O-])c1ccc(Cl)c(Cl)c1 [3,4-Dichloronitrobenzene]
Conditions	hypodiploid nuclei frequency, CHO-K1 [3] [%]	micronucleus frequency, CHO-K1 [2] [%]	relative survival, CHO-K1 [1]
concentration: 4.5 (µM), S9 metabolic activation: with S9, exposure time: 3-4 hours	0.24	1.48	100
concentration: 4.5 (µM), S9 metabolic activation: without S9, exposure time: 24 hours	0.4	1.46	109
concentration: 5.63 (µM), S9 metabolic activation: with S9, exposure time: 3-4 hours	0.14	1.16	81.1
concentration: 5.63 (µM), S9 metabolic activation: without S9, exposure time: 24 hours	0.62	1.36	119
concentration: 7.04 (µM), S9 metabolic activation: with S9, exposure time: 3-4 hours	0.26	1.26	75.2
concentration: 7.04 (µM), S9 metabolic activation: without S9, exposure time: 24 hours	0.84	1.32	93.9
concentration: 8.8 (µM), S9 metabolic activation: with S9, exposure time: 3-4 hours	0.24	1.22	74.9
concentration: 8.8 (µM), S9 metabolic activation: without S9, exposure time: 24 hours	2.02	1.32	113
concentration: 11 (µM), S9 metabolic activation: with S9, exposure time: 3-4 hours	0.24	1.4	78
concentration: 11 (µM), S9 metabolic activation: without S9, exposure time: 24 hours	0.8	1.22	89.6
concentration: 13.7 (µM), S9 metabolic activation: with S9, exposure time: 3-4 hours	0.34	2.1	88.8
concentration: 13.7 (µM), S9 metabolic activation: without S9, exposure time: 24 hours	2.36	2.1	106
concentration: 17.2 (µM), S9 metabolic activation: with S9, exposure time: 3-4 hours	0.36	1.68	80.8
concentration: 17.2 (µM), S9 metabolic activation: without S9, exposure time: 24 hours	1.26	1.64	83.8
concentration: 21.5 (µM), S9 metabolic activation: with S9, exposure time: 3-4 hours	0.16	1.52	92.1
concentration: 21.5 (µM), S9 metabolic activation: without S9, exposure time: 24 hours	1.44	1.66	102
concentration: 26.8 (µM), S9 metabolic activation: with S9, exposure time: 3-4 hours	0.16	0.94	118
concentration: 26.8 (µM), S9 metabolic activation: without S9, exposure time: 24 hours	0.58	1	142
concentration: 33.6 (µM), S9 metabolic activation: with S9, exposure time: 3-4 hours	0.14	0.74	104
concentration: 33.6 (µM), S9 metabolic activation: without S9, exposure time: 24 hours	0.66	1.26	118
concentration: 41.9 (µM), S9 metabolic activation: with S9, exposure time: 3-4 hours	0.16	0.9	90.6
concentration: 41.9 (µM), S9 metabolic activation: without S9, exposure time: 24 hours	0.66	1.66	111
concentration: 52.4 (µM), S9 metabolic activation: with S9, exposure time: 3-4 hours	0.24	1.04	93.6
concentration: 52.4 (µM), S9 metabolic activation: without S9, exposure time: 24 hours	1.06	1.9	113
concentration: 65.5 (µM), S9 metabolic activation: with S9, exposure time: 3-4 hours	0.22	1.2	90.6
concentration: 65.5 (µM), S9 metabolic activation: without S9, exposure time: 24 hours	0.82	1.34	111
concentration: 81.9 (µM), S9 metabolic activation: with S9, exposure time: 3-4 hours	0.14	1.02	80
concentration: 81.9 (µM), S9 metabolic activation: without S9, exposure time: 24 hours	1.16	1.48	102
concentration: 102 (µM), S9 metabolic activation: with S9, exposure time: 3-4 hours	0.16	1.16	103
concentration: 102 (µM), S9 metabolic activation: without S9, exposure time: 24 hours	0.92	1.68	104
concentration: 128 (µM), S9 metabolic activation: with S9, exposure time: 3-4 hours	0.1	1.02	94
concentration: 128 (µM), S9 metabolic activation: without S9, exposure time: 24 hours	0.74	1.96	114
concentration: 160 (µM), S9 metabolic activation: with S9, exposure time: 3-4 hours	0.12	0.94	99.9
concentration: 160 (µM), S9 metabolic activation: without S9, exposure time: 24 hours	1.3	1.96	91.4
concentration: 200 (µM), S9 metabolic activation: with S9, exposure time: 3-4 hours	0.18	1.4	106
concentration: 200 (µM), S9 metabolic activation: without S9, exposure time: 24 hours	2.94	2.36	94.6
